# In the supplement of paper PMC8728848:
# Some of the results follow.
# B1: rAAL-I144G (Agrocybe aegerita), Q6WY08 (protein)
# chain: MQGVNIYNISAGTSVDLAAPVTTGDIVTFFSSALNLNAGAGNPNNTTLNLFAENGAYLLHIAFRLQENVIIFNSRQPDGPWLVEQRVSDVANQFAGIDGKAMVTVFDHGDKYQVVINEKTVIQYTKQISGLTLSLSYNATEETSGFSTVVEAVTYTGLALEHHHHHH
# Key:
# Assay in all cases: glycan array binding signal (z-score within array); higher = stronger binding
# Conditions in all cases: glycan notation: IUPAC condensed, linker removed; mutation: I144G
# Neu5Ac(a2-3)Gal = biological target: Neu5Ac(a2-3)Gal
# In short: (§1)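 The binding signal is a Z-score computed within each array. Data were drawn from 3228 arrays in the Consortium for Functional Glycomics database, restricted to those with a known protein sequence. Scores were averaged over arrays of the same protein sequence at different concentrations or buffers, and over linkers, and negative values can be taken as non-binding.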
# [1] = biological target: Neu5Ac(a2-3)Gal(b1-3)GalNAc
# In short: as §1
# [2] = biological target: Neu5Ac(a2-3)Gal(b1-3)GalNAc(b1-3)Gal(a1-4)Gal(b1-4)Glc
# In short: as §1
# [3] = biological target: Neu5Ac(a2-3)Gal(b1-3)GalNAc(b1-4)Gal(b1-4)Glc
# In short: as §1
# [4] = biological target: Neu5Ac(a2-3)Gal(b1-3)GalNAc(b1-4)[Neu5Ac(a2-3)]Gal(b1-4)Glc
# In short: as §1
# [5] = biological target: Neu5Ac(a2-3)Gal(b1-3)GalNAc(b1-4)[Neu5Ac(a2-8)Neu5Ac(a2-3)]Gal(b1-4)Glc
# In short: as §1
# [6] = biological target: Neu5Ac(a2-3)Gal(b1-3)GalNAc6S
# In short: as §1
# [7] = biological target: Neu5Ac(a2-3)Gal(b1-3)GlcNAc
# In short: as §1
# [8] = biological target: Neu5Ac(a2-3)Gal(b1-3)GlcNAc(b1-2)Man
# In short: as §1
# [9] = biological target: Neu5Ac(a2-3)Gal(b1-3)GlcNAc(b1-2)Man(a1-3)[GlcNAc(b1-4)][Neu5Ac(a2-3)Gal(b1-3)GlcNAc(b1-2)Man(a1-6)]Man(b1-4)GlcNAc(b1-4)GlcNAc
# In short: as §1
# [10] = biological target: Neu5Ac(a2-3)Gal(b1-3)GlcNAc(b1-2)Man(a1-3)[Neu5Ac(a2-3)Gal(b1-3)GlcNAc(b1-2)Man(a1-6)]Man(b1-4)GlcNAc(b1-4)GlcNAc
# In short: as §1
# [11] = biological target: Neu5Ac(a2-3)Gal(b1-3)GlcNAc(b1-2)[Neu5Ac(a2-3)Gal(b1-3)GlcNAc(b1-4)]Man(a1-6)[Neu5Ac(a2-3)Gal(b1-3)GlcNAc(b1-2)Man(a1-3)]Man(b1-4)GlcNAc(b1-4)GlcNAc
# In short: as §1
# [12] = biological target: Neu5Ac(a2-3)Gal(b1-3)GlcNAc(b1-3)Gal(b1-3)GlcNAc
# In short: as §1
# [13] = biological target: Neu5Ac(a2-3)Gal(b1-3)GlcNAc(b1-3)Gal(b1-4)GlcNAc
# In short: as §1
# [14] = biological target: Neu5Ac(a2-3)Gal(b1-3)GlcNAc(b1-3)GalNAc
# In short: as §1
# [15] = biological target: Neu5Ac(a2-3)Gal(b1-3)GlcNAc(b1-6)GalNAc
# In short: as §1
# [16] = biological target: Neu5Ac(a2-3)Gal(b1-3)GlcNAc6S
# In short: as §1
# [17] = biological target: Neu5Ac(a2-3)Gal(b1-3)[Fuc(a1-4)]GlcNAc
# In short: as §1
# [18] = biological target: Neu5Ac(a2-3)Gal(b1-3)[Fuc(a1-4)]GlcNAc(b1-3)Gal(b1-3)[Fuc(a1-4)]GlcNAc
# In short: as §1
# [19] = biological target: Neu5Ac(a2-3)Gal(b1-3)[Fuc(a1-4)]GlcNAc(b1-3)Gal(b1-4)[Fuc(a1-3)]GlcNAc
# In short: as §1
# [20] = biological target: Neu5Ac(a2-3)Gal(b1-3)[GlcNAc(b1-6)]GalNAc
# In short: as §1
# [21] = biological target: Neu5Ac(a2-3)Gal(b1-3)[Neu5Ac(a2-6)]GalNAc
# In short: as §1
# [22] = biological target: Neu5Ac(a2-3)Gal(b1-3)[Neu5Ac(a2-6)]GlcNAc(b1-3)[Fuc(a1-3)[Gal(b1-4)]GlcNAc(b1-6)]Gal(b1-4)Glc
# In short: as §1
# [23] = biological target: Neu5Ac(a2-3)Gal(b1-3)]Neu5Ac(a2-3)Gal(b1-4)]GlcNAc
# In short: as §1
# Neu5Ac(a2-3)Gal(b1-4)Glc = biological target: Neu5Ac(a2-3)Gal(b1-4)Glc
# In short: as §1
# [24] = biological target: Neu5Ac(a2-3)Gal(b1-4)GlcNAc
# In short: as §1
# [25] = biological target: Neu5Ac(a2-3)Gal(b1-4)GlcNAc(b1-2)Man
# In short: as §1
# [26] = biological target: Neu5Ac(a2-3)Gal(b1-4)GlcNAc(b1-2)Man(a1-3)[GlcNAc(b1-4)][Neu5Ac(a2-3)Gal(b1-4)GlcNAc(b1-2)Man(a1-6)]Man(b1-4)GlcNAc(b1-4)GlcNAc
# In short: as §1
# [27] = biological target: Neu5Ac(a2-3)Gal(b1-4)GlcNAc(b1-2)Man(a1-3)[Neu5Ac(a2-3)Gal(b1-4)GlcNAc(b1-2)Man(a1-6)]Man(b1-4)GlcNAc(b1-4)GlcNAc
# In short: as §1
# [28] = biological target: Neu5Ac(a2-3)Gal(b1-4)GlcNAc(b1-2)Man(a1-3)[Neu5Ac(a2-3)Gal(b1-4)GlcNAc(b1-2)Man(a1-6)]Man(b1-4)GlcNAc(b1-4)[Fuc(a1-6)]GlcNAc
# In short: as §1
# [29] = biological target: Neu5Ac(a2-3)Gal(b1-4)GlcNAc(b1-2)Man(a1-3)[Neu5Ac(a2-6)Gal(b1-4)GlcNAc(b1-2)Man(a1-6)]Man(b1-4)GlcNAc(b1-4)GlcNAc
# In short: as §1
# [30] = biological target: Neu5Ac(a2-3)Gal(b1-4)GlcNAc(b1-2)[Neu5Ac(a2-3)Gal(b1-4)GlcNAc(b1-4)]Man(a1-3)[GlcNAc(b1-4)][Neu5Ac(a2-3)Gal(b1-4)GlcNAc(b1-2)[Neu5Ac(a2-3)Gal(b1-4)GlcNAc(b1-6)]Man(a1-6)]Man(b1-4)GlcNAc(b1-4)GlcNAc
# In short: as §1
# [31] = biological target: Neu5Ac(a2-3)Gal(b1-4)GlcNAc(b1-2)[Neu5Ac(a2-3)Gal(b1-4)GlcNAc(b1-4)]Man(a1-3)[GlcNAc(b1-4)][Neu5Ac(a2-3)Gal(b1-4)GlcNAc(b1-4)Man(a1-6)]Man(b1-4)GlcNAc(b1-4)GlcNAc
# In short: as §1
# [32] = biological target: Neu5Ac(a2-3)Gal(b1-4)GlcNAc(b1-2)[Neu5Ac(a2-3)Gal(b1-4)GlcNAc(b1-6)]Man(a1-6)[Neu5Ac(a2-3)Gal(b1-4)GlcNAc(b1-2)Man(a1-3)][GlcNAc(b1-4)]Man(b1-4)GlcNAc(b1-4)GlcNAc
# In short: as §1
# [33] = biological target: Neu5Ac(a2-3)Gal(b1-4)GlcNAc(b1-3)Gal
# In short: as §1
# [34] = biological target: Neu5Ac(a2-3)Gal(b1-4)GlcNAc(b1-3)Gal(b1-3)GlcNAc
# In short: as §1
# [35] = biological target: Neu5Ac(a2-3)Gal(b1-4)GlcNAc(b1-3)Gal(b1-4)GlcNAc
# In short: as §1
# [36] = biological target: Neu5Ac(a2-3)Gal(b1-4)GlcNAc(b1-3)Gal(b1-4)GlcNAc(b1-2)Man(a1-3)[Neu5Ac(a2-3)Gal(b1-4)GlcNAc(b1-3)Gal(b1-4)GlcNAc(b1-2)Man(a1-6)]Man(b1-4)GlcNAc(b1-4)GlcNAc
# In short: as §1
# [37] = biological target: Neu5Ac(a2-3)Gal(b1-4)GlcNAc(b1-3)Gal(b1-4)GlcNAc(b1-3)Gal(b1-4)GlcNAc
# In short: as §1
# [38] = biological target: Neu5Ac(a2-3)Gal(b1-4)GlcNAc(b1-3)Gal(b1-4)GlcNAc(b1-3)Gal(b1-4)GlcNAc(b1-2)Man(a1-3)[Neu5Ac(a2-3)Gal(b1-4)GlcNAc(b1-3)Gal(b1-4)GlcNAc(b1-3)Gal(b1-4)GlcNAc(b1-2)Man(a1-6)]GalNAc
# In short: as §1
# [39] = biological target: Neu5Ac(a2-3)Gal(b1-4)GlcNAc(b1-3)Gal(b1-4)GlcNAc(b1-3)GalNAc
# In short: as §1
# [40] = biological target: Neu5Ac(a2-3)Gal(b1-4)GlcNAc(b1-3)Gal(b1-4)GlcNAc(b1-3)[Neu5Ac(a2-3)Gal(b1-4)GlcNAc(b1-3)Gal(b1-4)GlcNAc(b1-6)]GalNAc
# In short: as §1
# [41] = biological target: Neu5Ac(a2-3)Gal(b1-4)GlcNAc(b1-3)Gal(b1-4)GlcNAc(b1-6)[Gal(b1-3)]GalNAc
# In short: as §1
# [42] = biological target: Neu5Ac(a2-3)Gal(b1-4)GlcNAc(b1-3)Gal(b1-4)[Fuc(a1-3)]GlcNAc
# In short: as §1
# [43] = biological target: Neu5Ac(a2-3)Gal(b1-4)GlcNAc(b1-3)GalNAc
# In short: as §1
binder,measurement,setting,value
B1,glycan array binding signal (z-score),Neu5Ac(a2-3)Gal,-0.144
same,glycan array binding signal (z-score),[1],1.67
same,glycan array binding signal (z-score),[2],1.35
same,glycan array binding signal (z-score),[3],-0.123
same,glycan array binding signal (z-score),[4],1.33
same,glycan array binding signal (z-score),[5],-0.121
same,glycan array binding signal (z-score),[6],4.09
same,glycan array binding signal (z-score),[7],-0.088
same,glycan array binding signal (z-score),[8],-0.183
same,glycan array binding signal (z-score),[9],-0.134
same,glycan array binding signal (z-score),[10],-0.126
same,glycan array binding signal (z-score),[11],-0.062
same,glycan array binding signal (z-score),[12],-0.183
same,glycan array binding signal (z-score),[13],-0.144
same,glycan array binding signal (z-score),[14],-0.138
same,glycan array binding signal (z-score),[15],-0.115
same,glycan array binding signal (z-score),[16],-0.125
same,glycan array binding signal (z-score),[17],-0.184
same,glycan array binding signal (z-score),[18],-0.109
same,glycan array binding signal (z-score),[19],-0.111
same,glycan array binding signal (z-score),[20],1.74
same,glycan array binding signal (z-score),[21],-0.08
same,glycan array binding signal (z-score),[22],-0.139
same,glycan array binding signal (z-score),[23],-0.06
same,glycan array binding signal (z-score),Neu5Ac(a2-3)Gal(b1-4)Glc,-0.131
same,glycan array binding signal (z-score),[24],-0.113
same,glycan array binding signal (z-score),[25],-0.069
same,glycan array binding signal (z-score),[26],1.63
same,glycan array binding signal (z-score),[27],0.214
same,glycan array binding signal (z-score),[28],0.102
same,glycan array binding signal (z-score),[29],-0.038
same,glycan array binding signal (z-score),[30],0.078
same,glycan array binding signal (z-score),[31],0.232
same,glycan array binding signal (z-score),[32],-0.073
same,glycan array binding signal (z-score),[33],-0.059
same,glycan array binding signal (z-score),[34],-0.12
same,glycan array binding signal (z-score),[35],-0.053
same,glycan array binding signal (z-score),[36],-0.204
same,glycan array binding signal (z-score),[37],-0.072
same,glycan array binding signal (z-score),[38],-0.08
same,glycan array binding signal (z-score),[39],-0.197
same,glycan array binding signal (z-score),[40],-0.092
same,glycan array binding signal (z-score),[41],-0.181
same,glycan array binding signal (z-score),[42],-0.208
same,glycan array binding signal (z-score),[43],-0.117
